Experimental data reported in the supplement of paper PMC3334620.
Whole data set: some 33,000 sequences, median “E-score (-0.5 to 0.5)” near -0.036, cut for the highest 2% near 0.37. The list shows a part of the results.

target: T1, Yer064c (UniProt P40041); assay: PBM E-score (8-mer binding enrichment) (E-score (-0.5 to 0.5)); higher = stronger / more preferred TF binding; most listed sequences are background and not binding sites; settings: protein concentration: 200 nM; construct: GST-full length
T1 sequence: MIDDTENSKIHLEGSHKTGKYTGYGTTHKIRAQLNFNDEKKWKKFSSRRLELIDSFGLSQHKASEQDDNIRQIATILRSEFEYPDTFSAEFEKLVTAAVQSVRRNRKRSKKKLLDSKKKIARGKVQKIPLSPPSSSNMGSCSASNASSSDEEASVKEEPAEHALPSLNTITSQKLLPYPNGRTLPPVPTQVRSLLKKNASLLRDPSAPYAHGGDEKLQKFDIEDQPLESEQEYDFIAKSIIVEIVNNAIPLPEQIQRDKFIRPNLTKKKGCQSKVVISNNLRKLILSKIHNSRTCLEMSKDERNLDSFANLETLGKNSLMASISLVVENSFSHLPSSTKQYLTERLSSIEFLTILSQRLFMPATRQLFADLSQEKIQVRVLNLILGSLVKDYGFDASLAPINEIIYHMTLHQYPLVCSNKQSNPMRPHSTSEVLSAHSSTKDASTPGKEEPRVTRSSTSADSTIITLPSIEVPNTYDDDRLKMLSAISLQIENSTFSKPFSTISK
How it was run: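 Masliner-normalised scans of fluorescent anti-GST signal were the basis for scoring. That signal came from GST-tagged yeast transcription factors applied at about 100-200 nM to double-stranded universal all-10-mer Agilent arrays on fresh or once-stripped slides. Each ungapped eight-base word, pooled with its reverse complement, received an E-score from the Universal PBM Analysis Suite.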

Sequence | PBM E-score
ACGTCACG | -0.289
AATGGCCC | -0.374
AGCTTACC | -0.0148
CCATCATA | -0.0232
GAGGTGAC | 0.224
GAGACAAC | -0.036
AAAGCAGT | 0.11
CAGACCTG | -0.105
CTTATCTC | -0.0792
AACGAGGG | -0.0732
ACTCAGAA | 0.338
AGGTTAAT | 0.171
GCTGTACC | -0.0973
CCGGGACA | -0.133
AAGGTGCG | -0.118
AGGATTAG | 0.0974
CGCACGCC | -0.0831
ACTCTCTG | 0.247
ATTTGTTC | 0.11
GGTCGTAA | -0.0401
AACTCTTA | 0.0866
GGCCCGAC | -0.188
CGCACCGC | -0.207
ATCGAGGA | 0.0662
ATGTATTA | 0.0655

Sequence | PBM E-score
GACATCGA | -0.0148
GTTACGGA | -0.0114
TACTCGCA | 0.211
AAGCTACC | 0.0356
ACACTCAA | 0.155
ACCTGCCC | -0.188
AATGCCAA | -0.167
AAACAAGC | -0.214
AACGGTCC | -0.244
GCTATACC | -0.129
AGCACCTG | -0.12
CGCTCACC | -0.256
ATCAGCAA | -0.0245
AAAGACCC | -0.0176
ATGCTTGA | 0.078
ATGCGCGA | 0.0822
TCGATCCA | -0.1
ATCACAAG | 0.194
ACTGGAGA | -0.0901
AGGTTTAC | -0.11
AGAGGACT | 0.249
AAGTACAA | 0.0912
CACGACAA | -0.0584
CTCCCCTC | -0.0464
GGGTATCA | -0.0346

Sequence | PBM E-score
ATCCGATA | -0.138
CTCTTTTC | -0.00184
CTGAGAAA | 0.121
AAGATGCG | -0.207
CTCCCGGA | -0.119
GACGTGTA | 0.0305
AACACGAA | 0.142
GAAGGCTA | -0.0025
CTATGAAC | 0.0923
AACACCAC | -0.0248
GCTGAAAA | -0.118
CGGATCCA | -0.0202
AGTAGTCA | 0.478
AGAGCTCC | -0.0726
ACAAACGG | -0.0526
ATACAACA | 0.068
GTAGGCTA | -0.0445
ACTCACTA | 0.346
ATCGGCAG | -0.205
CTTTAGCC | 0.176
GGCCCCTA | -0.227
CTGTGAAC | -0.0778
CGTTCGTC | -0.153
CATCGTGA | 0.0376
ATAGTGGA | -0.137

Sequence | PBM E-score
ATCAATAC | 0.0498
GAGATGCC | -0.212
GACAACGA | 0.0915
CCCTTATC | -0.0684
TAGGTCGA | -0.024
ATGAAAAA | 0.123
AAGGACGC | -0.117
ACCGGTCT | -0.345
AGTTTCAG | -0.0733
ACGGCTAC | -0.0869
CAGTTAAG | 0.0885
CCGGACCC | -0.278
ACATTCGC | -0.206
AAGAGTAG | -0.0333
AAGCGCGT | -0.0964
CGTGAAGC | -0.26
TGAGGAAA | -0.0935
ACCAACGT | -0.145
AAGTGGGT | -0.0192
ATCAGGTA | 0.114
AGCCTAAA | 0.0683
CCCTGTCG | -0.232
AAGTGGAC | -0.112
ATAGTGAG | 0.24
CACATGCA | 0.111

Sequence | PBM E-score
AAGGGGAC | -0.0495
ACATGCGC | -0.0108
AATAAATT | 0.129
TGCTATAA | -0.248
ACGCGCTC | 0.12
CACCATGG | -0.078
GTAATCTA | 0.119
ATCTACAA | 0.0742
TGAAGTAA | 0.0152
AAAAGATC | -0.0102
ATCAGGAG | 0.164
AGCGCCAC | -0.314
ACTTAACC | 0.121
GAGCTCCC | -0.00947
CGGCGACC | -0.318
CTTATTCC | -0.121
AGCTTCAC | -0.265
TACCTGGA | 0.0309
ATACAGAC | 0.0857
ATAGAGAC | 0.0997
GTAGATCA | 0.0904
GAGATAAC | -0.0649
CGAGTAGC | -0.00738
GTAAGTAA | 0.0006
AAGCACGT | 0.034

Sequence | PBM E-score
CGGTCATA | -0.0954
GCTACTAC | -0.0666
ATTTGGAC | -0.0647
TAGCAAGA | -0.0617
GCAATCAA | 0.134
ATTACCCC | 0.0298
CCGCGACA | -0.146
CTAAATAA | 0.128
TACAATGA | 0.243
GGTGAGGA | -0.0969
AATCGCCC | 0.186
AGGATCAT | 0.148
GCGGGGTA | -0.216
AGCCCGGG | -0.144
GTCCTGAA | -0.07
ATGCGGCG | -0.174
AATCCAGA | -0.019
CAGAAGAA | -0.0728
CTGGACAC | -0.209
AACATTCT | 0.111
AACTCGTG | 0.11
AAACTGTT | -0.0194
AGCAACTG | -0.155
TCGGACGA | 0.0731
ACTAAAAT | 0.201

Sequence | PBM E-score
CTATTCCA | 0.00202
ATAGGGAA | -0.248
GGCACTCA | -0.0401
CAGCATGC | -0.0385
ATGGCTCG | 0.237
ATCCTTCC | -0.106
CTCACTCA | 0.256
TGCGCGCA | -0.00849
CGACAAGA | 0.0513
CACCGCTG | -0.191
AGAACTAC | -0.103
GAAGCCAA | 0.035
ATTAATGC | -0.0148
CGCAAAGA | 0.0839
CACAAGAG | 0.0589
ATGGATCG | -0.068
GCTGCTCA | -0.125
ACCCGCTC | -0.32
GAATGCAC | -0.047
TAAGATTA | 0.298
CTCGACGC | -0.0731
CCATCTAC | -0.0261
